# Data: PubChem BioAssay AID588591 (National Center for Advancing Translational Sciences (NCATS), 2011)
# Out of some 390,000 compounds screened, about 4,700 (1.2%) were called active. Inconclusive results (about 4%) are left out. Calls follow the shape of the dose curve; as a rule, active = well fitted inhibition curve with a large enough effect; inconclusive = small, poorly fitted or top-dose-only effect, or another doubt; inactive = no such curve, though single readings can be large or run the other way. The entries are a selection whose mix differs from that of the whole data set.
# Target: DNA polymerase eta (Homo sapiens) (UniProt Q9Y253)
# Chain of UniProt Q9Y253 (Q9Y253 whole entry, looked up): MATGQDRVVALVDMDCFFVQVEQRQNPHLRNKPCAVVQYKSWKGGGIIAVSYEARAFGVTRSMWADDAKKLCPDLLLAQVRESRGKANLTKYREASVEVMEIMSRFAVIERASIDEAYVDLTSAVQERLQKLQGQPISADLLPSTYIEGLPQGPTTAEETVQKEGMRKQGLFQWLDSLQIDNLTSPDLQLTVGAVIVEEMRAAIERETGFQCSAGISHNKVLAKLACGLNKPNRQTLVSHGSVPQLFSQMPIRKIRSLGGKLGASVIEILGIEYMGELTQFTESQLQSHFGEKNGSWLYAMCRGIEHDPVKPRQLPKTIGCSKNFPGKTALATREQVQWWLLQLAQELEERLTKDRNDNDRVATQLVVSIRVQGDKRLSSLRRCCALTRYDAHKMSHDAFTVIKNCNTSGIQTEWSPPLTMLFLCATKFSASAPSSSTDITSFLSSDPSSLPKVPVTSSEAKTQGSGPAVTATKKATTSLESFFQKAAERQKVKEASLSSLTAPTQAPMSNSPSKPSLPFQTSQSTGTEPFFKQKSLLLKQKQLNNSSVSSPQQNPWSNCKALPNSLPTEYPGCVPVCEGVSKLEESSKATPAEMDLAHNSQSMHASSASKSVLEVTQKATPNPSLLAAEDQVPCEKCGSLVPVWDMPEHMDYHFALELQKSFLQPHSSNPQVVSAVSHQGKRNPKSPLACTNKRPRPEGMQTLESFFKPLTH
# Assay: qHTS for Inhibitors of Polymerase Eta
# Conditions: recombinant Pol eta, fluorescent DNA replication assay; series mostly up to 114 µM; activity change, negative = inhibition: at the top concentration
# How it was run: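 Pol eta at 10 nM preincubated with compounds 15 min at room temperature; reaction started with fluorescent substrate (50 nM final) and read kinetically at 0 and 10 min.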
# % is scaled to controls: 0 for no effect and ±100 for the full control effect; potency is read from the fitted curve at half-maximal effect.
SMILES,Potency,"activity change, negative = inhibition"
CC(C1SC(=S)NC1=O)C1SC(=S)NC1=O (centres undefined),active: 5.01 µM,–
COc1ccc(/C=N/NC(=O)Cc2n[nH]c(=O)[nH]c2=O)cc1,–,inactive: 17.7%
Cn1ccc2cc3c(cc21)CCN3C(=O)Nc1cccnc1,–,inactive: -6.31% [at 57.1 µM]
O=S(=O)(NCCS(=O)(=O)N1CCN(c2ccccc2)CC1)c1ccc(Br)cc1,–,inactive: 17.6%
COc1ccc(CNC(=O)c2cc3c(=O)n(Cc4ccco4)ccc3nc2C)cc1,–,inactive: 14.8%
O=c1[nH]c2ccsc2c(=O)n1CCO,–,inactive: 40.7%
Cc1cccc(C(=O)NCN2CCN(c3ccccc3C#N)CC2)c1,–,inactive: -15.2%
CCO[C@H]1OC(C(=O)N2CCN(Cc3ccc4c(c3)OCO4)CC2)=C[C@@H](c2ccc(Br)cc2)[C@@H]1CCCO,–,inactive: -3.56%
O=C1/C(=C/c2ccco2)SC(=S)N1c1cccnc1,active: 2.82 µM,–
Cc1nnc(SCC2=C(C(=O)O)N3C(=O)C(NC(=O)Cn4nc(C(F)F)cc4C)C3SC2)s1 (centres undefined),active: 8.91 µM,–
Cc1ccnn1CC(=O)N/N=C/c1ccc([N+](=O)[O-])s1,–,inactive: 22.7%
CC1(C)CCC2=C(O1)c1ccccc1C(=O)C2=O,active: 22.4 µM,–
Cc1cc(C)n(NC(=S)NC2CCCCC2)c(=O)c1C#N,–,inactive: 30.8%
Cc1cc2nc3c(nc2cc1C)C(O)=C3O,–,inactive: 33.1%
CN(C)[C@@H]1C(=O)C(C(N)=O)=C(O)[C@@]2(O)C(=O)C3=C(O)c4c(O)ccc(Cl)c4[C@@H](O)[C@H]3C[C@@H]12,–,inactive: -5.65%
COc1cc(NC(=O)c2ccc(C)cc2)ccc1NC(=O)c1cc2ccccc2o1,–,inactive: -4.91%
C=CCN1C(=O)C(Cc2ccccc2Cl)SC1=Nc1ccc(C(=O)O)cc1 (centres undefined),–,inactive: 38.8%
COc1cc(C(=O)O[C@H]2C/C(C)=C/CC[C@@]3(C)O[C@@H]3[C@H](O)[C@@H]2C(C)C)cc(OC)c1OC,–,inactive: -17.1%
Cc1ccc(N2C(=O)/C(=C/c3ccco3)SC2=S)cc1,–,inactive: -23.3%
O=C(/C=C/c1ccccc1)NCCc1ccccc1,active: 20 µM,–
C/C(N)=C(/C#N)C(=O)CSc1nnc(Cc2ccccc2F)n1N,–,inactive: 10.8%
COc1ccc(N2Cc3cccc(C(=O)N4CCN(C(=O)c5ccco5)CC4)c3C2=O)cc1,active: 5.62 µM,–
CC(C)(C)C(=O)Nc1ccc(C(=O)NNC(=O)c2ccccc2)cc1,–,inactive: 15.6%
NC(=O)c1ccsc1NC(=O)COC(=O)[C@@H]1CCCN1C(=O)c1cccs1,–,inactive: -18.4%

SMILES,Potency,"activity change, negative = inhibition"
COc1ccc(NC(=O)Nc2ccc(O)c3ccccc23)cc1,–,inactive: 40.4%
CCC(=O)Nc1ccc2nc3c(=O)[nH]c(=S)[nH]c3nc2c1,active: 17.8 µM,–
Cc1nnc(N2CCCC(C(=O)Nc3cc(F)ccc3F)C2)c2nn(-c3ccccc3)c(C)c12 (centres undefined),–,inactive: -7.46%
O=C(Nc1ccccc1F)c1cc(-c2ccco2)nc2ccccc12,active: 79.4 µM,–
Cc1cc(=O)[nH]c(NCc2ccccc2)n1,–,inactive: 36.2%
COc1ccc(-c2cn3cccnc3n2)cc1NC(=O)c1ccccc1C(F)(F)F,–,inactive: 17.1%
COc1ccc(S(=O)(=O)Cc2ccc(C(=O)N3CCN(c4cc(C)ccc4C)CC3)o2)cc1,–,inactive: -14%
CCC(Oc1cc(Cl)ccc1Cl)C(=O)NN1C(=O)C2C3CCC(C3=C(C)C)C2C1=O (centres undefined),–,inactive: 1.79%
C[C@@H]1O[C@@H](OC[C@H]2O[C@@H](Oc3c(-c4ccc(O)cc4)oc4cc(O)cc(O)c4c3=O)[C@H](O)[C@@H](O)[C@@H]2O)[C@H](O)[C@H](O)[C@H]1O,–,inactive: -18.3%
Oc1cc2c(c(Cl)c1O)CCNCC2c1ccccc1 (centres undefined),–,inactive: -6.57%
N#C/C(=C/C1=C(N2CCOCC2)C(=C/c2cccc([N+](=O)[O-])c2)/CC1)C(=O)Nc1ccccc1F,–,inactive: 89.5%
Cc1ccc[n+](-c2nc([O-])sc2C=O)c1,active: 22.4 µM,–
O=C1NN(c2ccc(Cl)cc2)C(=O)/C1=C\c1ccc(-c2cccc(C(=O)O)c2)o1,active: 4.47 µM,–
O=C(NC1(O)C(=O)c2ccccc2C1=O)c1c(Cl)cccc1Cl,active: 44.7 µM,–
O=S(=O)(Nc1cc(S(=O)(=O)N2CCCC2)ccc1O)c1ccc(Cl)s1,–,inactive: 4.6%
O=C(O)COc1ccccc1/C=C1\SC(=S)N(/N=C/c2ccccc2O)C1=O,active: 22.4 µM,–
COC1=C/C(=C/c2c(N)n3nc(CC(=O)N4CCCCC4)sc3nc2=O)C=CC1=O,active: 50.1 µM,–
Nc1c(C(=O)N/N=C/c2ccc([N+](=O)[O-])cc2)sc2nnc(-c3ccccc3)c(-c3ccccc3)c12,–,inactive: 23.1%
COC(=O)C1=C(N)Oc2cc(C)n(CCc3ccccc3)c(=O)c2C1c1cccnc1 (centres undefined),–,inactive: -14.4%
CCOc1ccc(/C=C2\NC(=S)NC2=O)cc1,–,inactive: 44.6%
Cc1oc2c(cc(NS(=O)(=O)c3ccc(C(C)C)cc3)c3ccccc32)c1C(=O)O,active: 44.7 µM,–
CC(=O)Nc1ccc(/C=N/NC(=O)c2cc(-c3ccco3)nc3ccccc23)cc1,–,inactive: 18%
CCOC(=O)C(NC(C)=O)(Nc1ccc(S(=O)(=O)Nc2onc(C)c2C)cc1)C(F)(F)F (centres undefined),–,inactive: -7.52%
CC(=O)N1CCc2cc(S(=O)(=O)N3CCOCC3)ccc21,–,inactive: -13.5%

SMILES,Potency,"activity change, negative = inhibition"
N#CC(=C(O)COC(=O)Cc1c[nH]c2ccccc12)c1nc2ccccc2[nH]1,–,inactive: -23.2%
COc1cccc(/C=C(\C#N)c2nc3ccccc3[nH]2)c1OCC(=O)O,–,inactive: 15.1%
Cc1cc(C)cc(NC(=O)Cn2c(=O)n(C(C)C)c(=O)c3oc4ccccc4c32)c1,–,inactive: 17.7%
CCc1cc(C(=O)Nc2ccc(S(=O)(=O)NC3=NCCCCC3)cc2)sc1C,active: 56.2 µM,–
CC(=O)N=c1c(C#N)cc2c(=O)n3cccc(C)c3nc2n1Cc1ccco1,active: 31.6 µM,–
OCC[C@@H]1C[C@H](O)[C@@H](O)[C@@]2(CCCc3ccccc3O2)O1,–,inactive: 0.879%
Cc1ncc([N+](=O)[O-])n1Cc1ccc(Cl)cc1,–,inactive: 31.2%
CCc1ccccc1NS(=O)(=O)c1ccc2[nH]cc(C(=O)NC3CCCC3)c(=O)c2c1,–,inactive: 3.42%
O=C(N/N=C/C(Br)=C\c1ccccc1)c1n[nH]c2c1CCC2,–,inactive: -6.48%
CC1CN(c2ccc([N+](=O)[O-])cc2Cl)CCN1S(C)(=O)=O (centres undefined),–,inactive: 35.7%
Cc1ccccc1NC(=O)c1cn(-c2ccccc2)nc1-c1ccccc1,–,inactive: -27.6%
N#C/C(=C\c1ccc(O)c(O)c1)C(=O)N1CCc2ccccc21,active: 39.8 µM,–
Cc1[nH]c(=S)c(C#N)c(C)c1Cc1ccccc1,–,inactive: 20.9%
Cc1cc2nc(/C(C#N)=C/c3ccncc3)[nH]c2cc1C,–,inactive: 34.3%
Cc1cccn2c(=O)c3cc(C(N)=S)c(=N)n(CCCN4CCOCC4)c3nc12,–,inactive: 35.2%
O=C(O)c1cccc(CN2C(=O)S/C(=C/c3cccc([N+](=O)[O-])c3)C2=O)c1,active: 79.4 µM,–
C(=N\n1cnnc1)/c1nc2ccccc2[nH]1,–,inactive: 17.5%
O=C(C1Cc2ccccc2CN1C(=O)c1ccccc1)N1CCN(c2ccccc2)CC1 (centres undefined),active: 79.4 µM,–
O=C(NCc1cccs1)c1ccc2c(c1)sc1nc(-c3ccc(F)cc3)cn12,–,inactive: 18.9%
CCC(C)[C@H](NC(=O)NCCC1=CCCCC1)C(=O)O (some centres undefined),–,inactive: 31.2%
COCCN1C(=O)C(=O)/C(=C(/O)c2cccc(OC)c2)C1c1ccco1 (centres undefined),active: 10 µM,–
Cc1ccc(Cl)cc1NC1=C/C(=N\S(=O)(=O)c2cccs2)c2ccccc2C1=O,–,inactive: -16.2%
COc1ccc(N2CCN(Cc3nc4c(c(=O)[nH]c(=O)n4C)n3Cc3ccccc3F)CC2)cc1,–,inactive: 19.1%
Cc1ccc2nc(-c3ccccn3)c(Nc3ccccc3C)n2c1,–,inactive: -28.9%

SMILES,Potency,"activity change, negative = inhibition"
CCc1ccc(-c2cc(C)no2)cc1S(=O)(=O)NCc1ccco1,–,inactive: -5.54%
O=C(CSc1nc2c([nH]c3ccccc32)c(=O)n1-c1ccccc1)c1ccc(Cl)cc1,–,inactive: 18.8%
COc1ccc(/C=C2\SC(c3ccc(C)cc3)=NC2=O)cc1OC,–,inactive: -4.35%
CN(Cc1nc(-c2ccccc2)no1)C1CCOCC1,–,inactive: 18.8%
CCCc1cc(=O)oc2c(C)c(OCc3nn[nH]n3)ccc12,–,inactive: 31.4%
CNc1ccc(Br)cc(C(=O)/C=C/c2cccc(Cl)c2Cl)c1=O,active: 44.7 µM,–
CCOc1ccccc1CNS(=O)(=O)c1ccc(-c2cnc(C3CC3)o2)cc1,–,inactive: -10%
CCOC(=O)/C(=C/c1ccc(OC(F)F)cc1)C1=Nn2c(nnc2-c2ccc(Cl)cc2)SC1,–,inactive: -9.32%
C[C@H](CO)N1C[C@H](C)[C@@H](CN(C)C(=O)Nc2ccc(C(F)(F)F)cc2)Oc2c(NC(=O)c3ccncc3)cccc2C1=O,–,inactive: -12.6%
CC(C)C[C@@H](CO)N(Cc1ccccc1)S(=O)(=O)N(Cc1ccccc1)[C@H](CO)CC(C)C,–,inactive: -12.4%
CC(=O)COC(=O)C1CCN(S(=O)(=O)c2cc([N+](=O)[O-])ccc2Cl)CC1,active: 31.6 µM,–
CC(C)CC(=O)Nc1nnc(S(=O)(=O)N(C)c2ccc(Cl)cc2)s1,–,inactive: -18.8%
COc1cc(/C=N/Nc2ccc(Cl)c(C(=O)O)c2)ccc1OC(=O)c1cccs1,active: 79.4 µM,–
COc1ccc(C)cc1NC(=O)CN1CCCN(S(=O)(=O)c2ccc(Br)cc2)CC1,–,inactive: -20.1%
O=C(CSc1nnc2ccc(-c3ccccn3)nn12)NCC1CCCO1 (centres undefined),–,inactive: 43.5%
CCCCCCN1C[C@@H](n2cc(-c3ccc(F)cc3)nn2)[C@H](O)C[C@@H]1c1ccc(Cl)cc1,–,inactive: -23.2%
CN(CCC#N)C(=O)COC(=O)c1c2c(nc3ccccc13)/C(=C\c1ccco1)CC2,active: 11.2 µM,–
CC(=O)c1c(C)oc(C)c1CSCc1ccc(C(=O)O)o1,active: 6.31 µM,–
CCc1ccc(-c2cc(C)no2)cc1S(=O)(=O)Nc1ccc(Cl)cn1,–,inactive: 11.1%
C/C=C/C=C\C(=O)Nc1cccc(C2=NOC3(C2)C[C@H](C(N)=O)N(C(=O)CC#N)C3)c1 (some centres undefined),active: 44.7 µM,–
CCOC(=O)c1c(S(=O)(=O)NCC(=O)NCc2ccccc2)c(C)n(C)c1C,–,inactive: -3.1%
O=C(CCc1nnc2ccc(NCc3ccco3)nn12)Nc1ccccn1,active: 28.2 µM,–
